The source gives no read counts; variants with many changes may rest on few reads.

B1: CPEB3 Ribozyme (parent)
chain: UAACAGGGGGCCACAGCAGAAGCGUUCACGUCGCAGCCCCUGUCAGAUUCUGGUGAAUCUGCGAAUUCUGCUGUAUAUCUC

The variants in this data set derive from B1. In words: self-cleavage, relative activity (ratio to wild type); higher = more cleavage; in vitro, sequencing. The procedure, abridged: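 Libraries of CPEB3 self-cleaving ribozyme mutants came from rounds of error-prone PCR and carried barcodes, which DNA sequencing matched to variants. In vitro transcription used T7 RNA polymerase at 37°C for 5 hours, with a further 15 min in DNase I before EDTA stopped the reaction; the ribozymes cleaved during both steps. The RNA was reverse transcribed with template switching and sequenced on Illumina. Relative activity is the cleaved/total read fraction of a variant divided by that of the unmutated ribozyme, averaged over three batches with at least 5 reads.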
G8U A21G C23A U54C U67A U69A: the self-cleavage was determined as 0.04. In the case of G9A A15G C23U U26C U31A U60C, the self-cleavage came to 0.15. For G8U G30U A45C U51A A64U, the self-cleavage came out at 0.09.

As to G8U A21G U80C, the self-cleavage was 0.21. In the case of G9A A20G A45U U48C C81U it was 0.27; in that of G9A A15G A28G C40U U60C U66C A75U, 0.19.

Consider G8U A18U U43C A45U, for which the self-cleavage turned out to be 0.06. Take G9A A18U A21G U51A A56U: the self-cleavage worked out at 0.05.

As for G8U A28U A45G A57G U72A, the self-cleavage was 0.05. On to G8U U31G U43C U74C, for which the self-cleavage amounted to 0.17. Consider G8U U41A U60C, for which the self-cleavage is 0.12.

As for G9A A35G A56U A65G, the self-cleavage stood at 0.08. Consider G9A A15U A28C, for which the self-cleavage was found to be 0.48. In the case of G8U U31A A35G A45U C50A U66C A77G it was 0.03; in that of G8U C37U U43C U60G G63A, 0.08; in that of G9A A20U U25A, 0.12. In the case of G8U A35G U60C U72C U80G it was 0.07. Turning to G8U A35C U66A U76C, the self-cleavage came out at 0.21. In the case of G8U A20G A21G A56G U80C, the self-cleavage was found to be 0.31. For the variant G8U G33A A56G, the self-cleavage amounted to 0.04. On to G8U C37U C50U, for which the self-cleavage was found to be 0.26. G9A A18G C40U U41A: the self-cleavage stood at 0.23. Regarding G9A A18U A28U G30A U80C, the self-cleavage is 0.06. In the case of G8U U43G A45G it was 0.16; in that of G8U A45G U67C U80C, 0.14. For G9A A13G A28U U51C C59A, the self-cleavage is 0.22. As for G8U C12U C38G U69A, the self-cleavage is 0.04. In the case of G8U U41C U48C A65G it was 0.14; in that of G8U U31C G63A, 0.17; in that of G9A A35G C37U A75U, 0.31. As for G8U A47G A56G A65C U80G, the self-cleavage was 0.05. G8U C17G U31G G36A C62A A64G U72A: the self-cleavage amounted to 0.

On to G9A A13G C23U A45G U67C C81U, for which the self-cleavage amounted to 0.06.

As for G9A A13G A21U U74C U80C, the self-cleavage is 0.1. On to G8U U60A C62U, for which the self-cleavage stood at 0.13.

Consider G9A A13G U26A U69C, for which the self-cleavage was found to be 0.06. As for G9A A18G G24A U51C, the self-cleavage was 0.14. For G8U A20U U26A U48C U67A, the self-cleavage worked out at 0.05. G9A A28U G70C: the self-cleavage amounted to 0.15.

As to G9A A20U A28C, the self-cleavage worked out at 0.16. For the variant G9A A13U A28G A75G U78C, the self-cleavage worked out at 0.14. As for G8U A21G U67C, the self-cleavage stood at 0.14.

For G9A A35C U67C U80C, the self-cleavage is 0.13. Take G9A C11A A18U C32U U58C U76C: the self-cleavage was 0.05. G9A A28U U49C C68A C71G: the self-cleavage amounted to 0.03.

For the variant G9A A13U U41C G63A, the self-cleavage worked out at 0.37. As for G8U G24U U26A A35G A45U, the self-cleavage is 0.07.

For G9A A15G A18G A35G U67A, the self-cleavage turned out to be 0.37. In the case of G8U A21U U26C U31C U51A U80C it was 0.04; in that of G9A A20U G30A A35U A57G U69A, 0.04; in that of G9A A18G U26C C40U U41A, 0.05. In the case of G8U A35G G63A A64G A65G it was 0.07; in that of G8U U41A U72A, 0.13; in that of G9A A18G U72C A77G, 0.24. G9A A15G A21G U26C G55A: the self-cleavage turned out to be 0.04. Regarding G9A A13G U54A, the self-cleavage stood at 0.17.

For G8U A18U G33A U49C A56U A57G U58G, the self-cleavage was determined as 0.05.

As for G9A A35G U43C A45G A57G U67C U80G, the self-cleavage is 0.06. As to G8U C37U U43C A47G U58C A65C, the self-cleavage stood at 0.05. In the case of G8U A56G A64G A65G U66C U78C it was 0.04. As to G9A A13U U25C C27U A47G U78C, the self-cleavage was 0.05. Regarding G9A A28U G33A U43C U60A A65G, the self-cleavage came to 0.04. As to G8U U41C A77G U80A, the self-cleavage turned out to be 0.08. Turning to G8U A21G C34U U69A, the self-cleavage is 0.06. With G8U C12U C29U U31A A45G U80A, the self-cleavage was found to be 0.03.

For G8U A21G A47G U67C U72A U76C, the self-cleavage was found to be 0.03. As for G9A A35G U67C U72C A77U, the self-cleavage is 0.1. Take G8U A21G C23A U31A: the self-cleavage was found to be 0.16. In the case of G9A A21U A28G U67A U72A A77G U80A, the self-cleavage worked out at 0. With G8U A20U U31A U41C A57G A65G U67C, the self-cleavage came out at 0.03.

Take G8U U51C G63A U67C: the self-cleavage came out at 0.06. With G9A A13C U72C, the self-cleavage was determined as 0.4. For G8U A18U U48A U60A A64U, the self-cleavage is 0.07. In the case of G8U U26A U51A U54G U69C U72G it was 0.06; in that of G9A A21G A64U, 0.08. In the case of G8U A20U U25C A28C U74C A75U it was 0.05. As for G8U U66C U76C U80C, the self-cleavage was 0.03.

Turning to G8U G55A U60A U78C, the self-cleavage stood at 0.09. G9A A20U A28C U49C A56G U66C: the self-cleavage amounted to 0.05. In the case of G9A A21G U25C U51G it was 0.05; in that of G9A C11G G19C U31A A65G, 0.21.

As for G9A A21G U54C U67C C68A, the self-cleavage is 0.05.

In the case of G9A A18G C40U U41A U66C, the self-cleavage was 0.13.

The values above are taken from the RNAGym collection of RNA variant scans (doi:10.1093/nar/gkz1192).
